Results from publication PMC4242493.
This is one part of the list. The list includes weakly bound sequences.

molecular target: MaxL homodimer (UniProt P61244); assay: universal protein-binding microarray (PBM); details: PBS-based mixture, 10 nM His-tagged protein dimer, 2% milk, 200 ng/uL BSA, 50 ng/uL salmon testes DNA, 0.02% TX-100; detection with Alexa 488 anti-His …; high values mean tight binding; most listed sequences are background and not binding sites; double strand, one strand shown
UniProt P61244, sequence (P61244 whole entry): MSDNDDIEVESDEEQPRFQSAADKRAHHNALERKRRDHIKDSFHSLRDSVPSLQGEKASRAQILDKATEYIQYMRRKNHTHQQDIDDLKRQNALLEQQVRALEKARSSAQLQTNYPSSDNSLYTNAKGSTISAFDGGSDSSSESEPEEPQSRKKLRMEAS

Sequence	binding signal (normalized occupancy)
ACTGACCT	0.0762
ACCCCGTC	0.0728
GGTGACGA	0.0739
CCCCTAAA	0.0758
ACCGGGTC	0.0739
GCAACATA	0.0804
AATGGCTA	0.0779
GACGAAAC	0.0653
ATACGGAT	0.0815
CGAACTGC	0.0726
CGAACCTA	0.0687
CCGGCGAA	0.068
AAACTTCC	0.0702
AATAAGGT	0.0762
CGCTGGTA	0.0726
CCCATTGC	0.0758
TCGAGCCA	0.0692
CAAGGGGG	0.072
AACACGGG	0.0875
ATTCAGTA	0.0734
TCGGTCAA	0.0725
CGAGTAAC	0.0753
CGAGATTC	0.0733
ACTATGAA	0.0773
CCCTCCAG	0.0701

Sequence	binding signal (normalized occupancy)
ACAAAGAA	0.0776
CGGGTGGA	0.0734
AAATCAGT	0.0738
CAAATTCA	0.073
GGAAAGCA	0.0753
GCAACGCC	0.0765
GACCTGAA	0.0751
AAATCCTC	0.0743
AGATAAAT	0.08
ATAATCGC	0.0754
AACGTCAC	0.0801
TACCTTCA	0.072
CGACTTTA	0.0687
ACGCTCCC	0.0776
ATCGTGTC	0.0864
TAGACGCA	0.0758
AACCACTC	0.0751
TAGGAGGA	0.074
AAAACATG	0.0907
GCGTCGGA	0.074
CAGTCTGC	0.0717
GCCCTCCA	0.0756
ATAGGAGA	0.0786
CTACTCAC	0.0784
GAGTGGAC	0.0761

Sequence	binding signal (normalized occupancy)
GGTTGGTA	0.0731
AGGGGTGG	0.0848
CGCGCTTA	0.0756
AGATAGGA	0.0769
CGTAATCA	0.079
CGGAACGA	0.0706
GTAGTGGA	0.0763
CTAGTGTA	0.0744
ATGTGTAC	0.0898
CTGAACTC	0.0726
ACGCCGAA	0.0725
AAAAGAAA	0.0762
GGAGCTAC	0.0689
GCAAAGTA	0.0737
AGGGCAGG	0.0734
CGTGTGAA	0.0833
ACGGGAAT	0.0768
GTGTTGCA	0.0825
GCCGTTGA	0.0691
ATCCCTAC	0.0804
GTTTGAAA	0.0753
AACGTCAA	0.0715
AGTTAGAT	0.0767
GGGCTGAA	0.0722
AAATCGCA	0.0717

Sequence	binding signal (normalized occupancy)
CCCTTCGC	0.0711
AGATTCAC	0.0726
CACCATGA	0.0873
CCCCTGGA	0.0742
ATCCCATA	0.0876
AAAGCGCG	0.0769
GAGATGAA	0.0817
ACCGGCCA	0.0707
CGAGTAGC	0.0702
TGTCCTAA	0.0734
TAGGTCCA	0.0711
AGTAATGC	0.0782
AGCAACCG	0.0683
CTCGGGTC	0.0693
GGCAAGGA	0.0673
CCATCAAC	0.0773
CTCTAATA	0.0784
CTCCGATC	0.0746
AAAGAATG	0.0744
CTAGTTCC	0.0687
AAGAGTTA	0.0733
CGGCAGAG	0.068
CGCGCATA	0.0826
AACTAGAG	0.0684
ACTCTGGC	0.067

Sequence	binding signal (normalized occupancy)
CATCTGCA	0.0906
GAAGGACC	0.0679
CCGCTCGC	0.069
CCAGAAAC	0.072
AAACCAGG	0.0764
CTATGCAC	0.0874
CAGTGGGA	0.0731
ATCTAAGC	0.0747
GTTTCGCA	0.0757
ATATAGGG	0.0809
ACTGAATG	0.0733
GGTCTAAA	0.0723
GGCTTCCA	0.0728
GGATACTA	0.0764
ACTCAAGG	0.0711
CACGCCTC	0.0974
CCGGGGAG	0.0725
ATGGATTA	0.0792
GACATCGA	0.0739
AACTAGTT	0.0666
AAAGGGGA	0.0742
CCTCCGAG	0.0716
CTTGTAGC	0.072
CATCCCGA	0.0791
ATGCGATA	0.0794

Sequence	binding signal (normalized occupancy)
AGGTTAAG	0.0724
CGGGTGGC	0.0775
CTTTTCCA	0.0782
AATCGAGA	0.0714
CAGGTAAA	0.0783
GCATACGC	0.0779
GTGTCAAA	0.0809
ACTACAGC	0.0783
CGGACTTA	0.07
CTATGAAC	0.0747
GTCTCCTA	0.0763
GGCATGTA	0.0812
AAGTCTAC	0.0727
ACGGAATG	0.0778
CTACGCAG	0.0715
CGTTCCGC	0.075
CTGACGTA	0.0683
ACTGCTCA	0.0693
CATCTCCA	0.08
CTATTGCA	0.0774
CGCTTCAC	0.0722
CGCTAATC	0.0771
ACTCTGAT	0.0719
AACACTCC	0.0751
GCTATACA	0.0815

Sequence	binding signal (normalized occupancy)
CTTAGCGC	0.0686
AAGCTCTC	0.0729
ACTGTATC	0.0799
CGCGCAGC	0.0664
CATTCGGC	0.0725
CTTGATTC	0.0768
ACTACTAA	0.0777
GCAGGGAA	0.0771
AGCTGTGA	0.0758
AATCATTC	0.0797
ATGTTTCA	0.082
ATCGGAAT	0.0727
TTCCGAAA	0.077
AAAACTAG	0.0719
ACCATAGG	0.075
ATAGGATA	0.0787
CTCGACTC	0.0692
AGTATGGC	0.0857
AGTGCTTA	0.075
AAAATAAG	0.0781
AGTGTTAG	0.0767
TATTAGCA	0.0774
AGACGCGG	0.0692
CTGTTTAC	0.073
ATCCCCGG	0.0703

Sequence	binding signal (normalized occupancy)
ATACGGGC	0.0765
AAAAACTT	0.0679
ATCCATAA	0.0867
ATGTTTAC	0.0826
CGAATGAC	0.0771
GTCCGACA	0.0735
GACAGACC	0.0741
ACTCCAAA	0.0692
ATTTCGGA	0.069
GGGTATTA	0.0764
CGGGTGCA	0.0755
AACCTCGC	0.078
CTTGGTAA	0.0757
TGGTTGAA	0.0775
CTGTCCTC	0.073
AAATGTTC	0.0712
ATTTCAAA	0.0795
TACTTCCA	0.0755
CTGCCGGA	0.0683
CACGTGAG	0.245
ACTCTAGC	0.0723
CTTACTAC	0.0835
GGCCGCTA	0.0662
CTATCACA	0.0865
AGCCACCG	0.0649

Sequence	binding signal (normalized occupancy)
GAAGGCCA	0.0704
ATGAGAAG	0.078
AAGCTTCA	0.0687
GTCCTTGA	0.0749
CAGCTAGA	0.0688
AATACAAG	0.0789
CACTAGAA	0.0727
ACATCAGG	0.0749
ATCAAACC	0.0805
CGTAGTCC	0.0709
CTACACGC	0.0967
ATGTGAGC	0.0803
ACGCATCT	0.0841
GGATCCAA	0.0747
ATCTATCG	0.0779
CAGTTATA	0.0794
GAGACGGC	0.0687
ATCCTATG	0.0842
CAGCAATG	0.082
AGGGCAAC	0.0704
CTCCAACC	0.0736
ATAAAGCA	0.0811
GTGTGGCA	0.0843
CCATCCTC	0.0722
AGGCACAG	0.075

Sequence	binding signal (normalized occupancy)
CCCTGAGG	0.0704
CACCGAAA	0.0748
TCCTTCCA	0.0795
GGTGAAAA	0.0772
CGCATCTC	0.0769
ACAAGATC	0.0745
GTCCTCAA	0.0714
TCACGTCA	0.0819
ACAGTCCG	0.0714
AGCTAGCA	0.0662
ACCAGGAT	0.0773
ATCGGACA	0.0773
AGCAAGGG	0.072
CGGGTTCA	0.07
CACTCACC	0.0734
TATTTTGA	0.0768
GACACGGC	0.0778
CTAGTACA	0.0796
ATGTGCGA	0.0863
CCATATGG	0.123
CCCGCAAA	0.0729
CGGCTATA	0.07
GGAAGGAA	0.0718
AGGCAACT	0.075
TATCGATA	0.0806

Sequence	binding signal (normalized occupancy)
GCCTCCGC	0.0623
AGGTGTGA	0.0887
CTCAGACC	0.0694
CGCATCGA	0.0801
CATCACAA	0.0823
CGCTCTGA	0.0752
GAGACATA	0.0802
GATTTACC	0.0744
ATCGTGGC	0.086
CAACGTCA	0.0743
TACAGGGA	0.0781
ACGGAACC	0.0721
ATCCTACA	0.0764
GACGTAAA	0.0701
AAGCTGTA	0.0738
AATGGATG	0.0803
CTTCCTGA	0.073
AGAGCGAG	0.0719
GTGTCACA	0.0836
GGGTACCC	0.0733
GTGTGGTA	0.0868
CTGTGCCA	0.067
CTGGGTTA	0.0751
CCAAGAGA	0.0718
GGCAAGTA	0.0715

Sequence	binding signal (normalized occupancy)
ACGCTTAC	0.0783
GATAGGGC	0.074
ATCCGACG	0.0742
AGAATTGC	0.077
ACCGGTGG	0.0713
ATGACGGC	0.0785
GGTAGTGA	0.0804
CAAATCGG	0.0668
ATCATATA	0.0893
CGCCCTTA	0.0709
AAGACACA	0.0794
GGGTGCCA	0.0807
CTATTTCC	0.0807
GAAGTCTC	0.0775
AGGCTCAC	0.0818
CTTAGGAA	0.0761
CGGCCCCC	0.0709
CGTGCATC	0.0891
AATGAACT	0.0716
GCGATCAA	0.0763
CATGGATC	0.0868
AATATGGC	0.0866
GCAGTGCC	0.0683
AGGACCAG	0.0714
GGCCAGAA	0.0712

Sequence	binding signal (normalized occupancy)
GGCATGCC	0.0932
ATAACTAA	0.0784
GCACGTTA	0.104
GATATAGC	0.0839
CTAGAGGC	0.0728
AGTCTTCC	0.0722
CGTACACC	0.0782
CCCAGATA	0.0753
ATACGGGG	0.0804
ACGGCCCC	0.0738
CGCAGCAA	0.0688
ATCGAAGC	0.0686
GGGAAATA	0.0838
CTCAGGAC	0.0709
CGCCGGGA	0.0678
GCGTACCC	0.0808
ACGGGCAA	0.071
ACCTACCT	0.0733
CTGTCACC	0.0808
CGACCAGC	0.0737
AATGCGGG	0.0799
ACCTTCAT	0.0749
TCTGCTAA	0.0734
AGGGTGCC	0.0782
GATTCCAA	0.0723

Sequence	binding signal (normalized occupancy)
ATTAACCA	0.0764
CCTAACAA	0.0755
CAGATTCA	0.0717
ATACGTAT	0.0856
AAACCGCT	0.0732
ACCCGGCG	0.0738
ACAACCCT	0.0791
CCCAAAAG	0.0645
GATGATGC	0.0776
AGAAGTTA	0.0729
AATGTGAA	0.0782
AGGTTCGA	0.0713
GCTGCACA	0.0768
CAAACTCC	0.0727
CATTTAGC	0.0759
TGGAGACA	0.0748
CGCCCAGC	0.0706
GTTGCCTA	0.0755
GCGGACAC	0.0821
